# Data reported in paper PMC4336329 (PLoS ONE, 2015).
# Among all 310,000 compounds or so, about 2,200 (0.71%) showed an effect of 50% or more. The effect is printed as a negative number. Some of the results follow.
# Target: human ether-à-go-go-related gene (hERG) potassium channel (human, UniProt Q12809)
# Test: primary screen, population patch clamp on CHO cells stably expressing hERG
# Chain of human ether-à-go-go-related gene (hERG) potassium channel (Q12809 whole entry, looked up): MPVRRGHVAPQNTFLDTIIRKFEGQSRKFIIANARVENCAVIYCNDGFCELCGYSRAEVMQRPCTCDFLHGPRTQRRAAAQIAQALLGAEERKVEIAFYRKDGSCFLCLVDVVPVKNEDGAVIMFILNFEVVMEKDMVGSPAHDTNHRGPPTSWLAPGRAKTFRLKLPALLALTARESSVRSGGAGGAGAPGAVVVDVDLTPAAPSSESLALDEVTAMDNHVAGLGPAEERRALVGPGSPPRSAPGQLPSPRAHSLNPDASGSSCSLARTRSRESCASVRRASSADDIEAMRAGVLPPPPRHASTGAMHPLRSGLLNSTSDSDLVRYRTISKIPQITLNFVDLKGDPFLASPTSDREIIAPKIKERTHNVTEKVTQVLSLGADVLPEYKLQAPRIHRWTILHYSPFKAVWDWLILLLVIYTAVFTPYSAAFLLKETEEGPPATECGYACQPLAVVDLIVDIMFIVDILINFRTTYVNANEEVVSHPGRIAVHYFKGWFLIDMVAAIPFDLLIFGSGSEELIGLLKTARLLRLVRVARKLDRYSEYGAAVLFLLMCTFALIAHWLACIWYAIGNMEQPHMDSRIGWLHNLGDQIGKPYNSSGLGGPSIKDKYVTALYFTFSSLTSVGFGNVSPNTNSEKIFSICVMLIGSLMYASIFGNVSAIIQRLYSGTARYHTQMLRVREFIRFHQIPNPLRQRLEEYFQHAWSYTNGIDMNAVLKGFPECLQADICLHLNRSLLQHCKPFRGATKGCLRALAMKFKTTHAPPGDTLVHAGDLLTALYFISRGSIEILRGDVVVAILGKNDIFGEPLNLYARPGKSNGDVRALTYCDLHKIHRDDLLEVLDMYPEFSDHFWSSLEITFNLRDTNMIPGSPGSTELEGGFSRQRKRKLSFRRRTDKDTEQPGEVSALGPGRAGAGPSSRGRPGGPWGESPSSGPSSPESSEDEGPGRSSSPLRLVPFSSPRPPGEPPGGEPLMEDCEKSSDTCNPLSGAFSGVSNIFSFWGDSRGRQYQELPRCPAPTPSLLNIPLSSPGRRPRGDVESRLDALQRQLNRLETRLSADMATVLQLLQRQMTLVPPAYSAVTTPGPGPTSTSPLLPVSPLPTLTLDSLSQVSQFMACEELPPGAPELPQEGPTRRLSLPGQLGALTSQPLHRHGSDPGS
row,SMILES,"hERG current change (%, negative = inhibition) at 1uM"
1,CCOC(=O)N1CCC(NC(=O)c2ccc3c(c2)sc2nc(-c4ccccc4)cn23)CC1,4.98%
2,COc1ccc(S(=O)(=O)N(C)CC(=O)NCc2cccnc2)cc1Cl,7.68%
3,Cc1cc(C(=O)Nc2ccc3c(c2)CCC3)c2ccccc2n1,14.3%
4,Cn1c(-c2ccsc2)c(-c2cccs2)c2cc(-c3cccc4[nH]ccc34)ccc21,18.4%
5,COc1cccc(C(=O)Nc2cccc(-c3ccc(N4CCOCC4)nn3)c2)c1,13.5%
6,CCOC(=O)CC1=CC(C)(CC(=O)OCC)C(C#N)(C#N)C(N)=C1C#N (centres unmarked),5.76%
7,CCCOc1ccc(N2C(=O)CC(N3CCOCC3)C2=O)cc1 (centres unmarked),3.71%
8,CCOC(=O)C1CCN(c2c(NCCC(C)C)c(=O)c2=O)CC1,-1.16%
9,CC(C)NC(=O)NNc1c(Cl)cncc1Cl,13.9%
10,Cc1cc2occ(CC(=O)NNC(=O)c3ccccc3F)c2cc1C,8.1%
11,C/C(=N\NC(=O)c1ccccc1)c1nc2ccccc2n1C,3.11%
12,CC(C)Oc1ccc(C(=O)OCC(=O)NC2CCCCCC2)cc1,12.8%
13,COC(C)(C)CCCC(C)C/C=C/C(C)=C/C(=O)OC(C)C (centres unmarked),7.39%
14,COC(=O)c1ccc(C2C(C#N)=C(N)Oc3cc(O)ccc32)cc1 (centres unmarked),11.4%
15,O=c1c2cc(Cl)ccc2nc(-c2ccc([N+](=O)[O-])cc2)n1O,11.4%
16,CCn1nc(CC(=O)Nc2ccc(-n3cnnn3)c(OC)c2)c2ccccc2c1=O,5.87%
17,Nc1cc(=O)[nH]c(SCCOc2ccccc2)n1,11.5%
18,O=C(Nc1ccc(Cl)cc1)Nc1nnc(Cc2ccc([N+](=O)[O-])cc2)s1,13.9%
19,Nc1nc(SCC(=O)c2ccc(Oc3ccccc3)cc2)n[nH]1,-7.97%
20,COc1cccc(NC(=O)CCN2C(=O)c3ccccc3S2(=O)=O)c1,11.1%

row,SMILES,"hERG current change (%, negative = inhibition) at 1uM"
1,CCC(C(=O)NCCC(C)C)n1ccc2cc(S(=O)(=O)N3CCCCC3)ccc21 (centres unmarked),6.32%
2,O=c1[nH]cc(COCc2ccccc2)c(=O)[nH]1,9.59%
3,C[N+]1(CC(=O)OCCCc2ccccc2)CCCCC1.[I-],13.5%
4,Cc1noc(C)c1C(=O)Nc1nc2ccc(Cl)cc2s1,8.24%
5,COc1ccccc1C(=O)Nc1cc(-c2ccc(C)cc2)no1,13%
6,Cc1ccc(C(=O)N2CCN(c3ccc(NC(=O)CSc4ccc(Cl)cc4)cc3)CC2)cc1,16.2%
7,COc1ccc(-c2cc(=O)c(C(=O)c3ccc(C)cc3)n[nH]2)cc1,14.8%
8,CCN1CCN(Cc2cccc(Oc3ccc(Cl)cc3)c2)CC1,-15.1%
9,O=C(COc1ccc([N+](=O)[O-])cc1)Nc1ccc(N2CCN(C(=O)c3ccco3)CC2)cc1,9.94%
10,CN(c1ccccc1)c1nc(N)c([N+](=O)[O-])c(NCc2ccco2)n1,-2.93%
11,O=C(N/N=C/C1CC=CCC1)c1ccc(Cl)cc1O (centres unmarked),4.58%
12,O=C(O/N=C(\c1ccccc1)c1ccccn1)c1cccc2ccccc12,0.164%
13,NP(=O)(OCC(F)(F)F)Oc1ccccc1 (centres unmarked),13.7%
14,COc1ccc(OCCn2c(NC(=O)c3ccco3)nc3ccccc32)cc1,14.9%
15,COc1ccc(CNC(=O)C2CCN(S(=O)(=O)c3ccccc3)CC2)cc1,18.2%
16,CCC1=NN(C(=O)c2ccc(Br)cc2)C(O)(c2ccccc2)C1 (centres unmarked),9.5%
17,O=C(O)c1ccc(-c2nc3ccccc3s2)o1,11.8%
18,CC1(C)Cc2cccc(OCC(=O)NCCOc3ccccc3)c2O1,0.28%
19,CCOc1ccc(-n2cnnn2)cc1S(=O)(=O)NCc1ccccc1,-44.4%
20,CC1CC(C)CN(S(=O)(=O)c2ccc(C(=O)N3CC(C)OC(C)C3)cc2)C1 (centres unmarked),9.52%

row,SMILES,"hERG current change (%, negative = inhibition) at 1uM"
1,CCc1cccc(NS(=O)(=O)c2ccc3c(c2)NC(=O)C(C)S3)c1 (centres unmarked),13.6%
2,CCOc1cc(/C=N/NC(=O)C(=O)N2CCCC2)ccc1O,13.2%
3,Nc1ccc(C(=O)NCC2(c3ccccc3)CCCC2)cc1,0.32%
4,Cc1cc(=O)n2cc(-c3ccccc3)nc2[nH]1,-4.8%
5,CCN1C(=O)/C(=C\N2CCN(C(=O)c3ccco3)CC2)SC1=S,11.7%
6,COc1ccc(-c2nc(CNS(=O)(=O)c3cc(OC)ccc3OC)cs2)cc1,7.44%
7,CCn1c(=O)c2c3c(sc2n2cnnc12)CCC3,19.7%
8,O=C(CNC(=S)NC(=O)c1ccc(F)cc1)c1ccccc1,14%
9,COc1ccc(NC(=O)CSC2=NC(=O)CC(C)=N2)cc1,17.4%
10,CCC(C)Oc1ccc(C(=O)Nc2ccc(CN3CCOCC3)cc2)cc1 (centres unmarked),5.88%
11,Cc1nnc2ccc(-c3ccc(NC(=O)c4ccco4)cc3)nn12,-4.49%
12,Nc1cc(Cl)c(N)cc1Cl,4.7%
13,CSc1nsc(SCC(=O)Nc2cc(C(=O)O)ccc2C)n1,6.07%
14,CCOC(=O)N1CCN(CC(=O)Nc2ccc(C)cc2)CC1,6.17%
15,Cc1ccc(C2CC(c3cccc(Br)c3)n3nc(N)nc3N2)cc1 (centres unmarked),11.2%
16,Cc1ccc(S(=O)(=O)N2CCN(C(=O)CN3CCc4ccccc4C3)CC2)cc1.O=C(O)C(=O)O,-3.74%
17,O=C(COC(=O)CNC(=O)c1ccc(Cl)cc1)Nc1cccc(S(=O)(=O)N2CCCC2)c1,-5.32%
18,O=C(CCc1nc2ccccc2s1)OCc1ccccc1,-8.84%
19,O=C(c1ccc(NS(=O)(=O)c2ccc3[nH]c(=O)[nH]c3c2)cc1)N1CCN(c2ccccc2O)CC1,5.74%
